According to the RNAGym collection of RNA variant scans (doi:10.1093/nar/gkz1192):
Read counts are not given, so values of variants with three or more changes are uncertain.

B1: CPEB3 Ribozyme (parent)
chain: UAACAGGGGGCCACAGCAGAAGCGUUCACGUCGCAGCCCCUGUCAGAUUCUGGUGAAUCUGCGAAUUCUGCUGUAUAUCUC

Variants of: B1
Assay: self-cleavage, relative activity (ratio to wild type); higher = more cleavage; in vitro, sequencing
How it was run: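 Relative activity was defined as the cleaved/total read fraction for a variant divided by the same fraction for the unmutated ribozyme. CPEB3 self-cleaving ribozyme libraries were made by rounds of error-prone PCR, barcoded, and transcribed in vitro with T7 RNA polymerase for 5 hours at 37°C, and cleavage ran through transcription plus a 15 min DNase I step before EDTA. Illumina sequencing of template-switched reverse transcripts gave the reads, and DNA sequencing mapped the barcodes. Averages come from three batches, using variants with at least 5 reads.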

Row | Variant | self-cleavage
1 | UAACAGGGGGCCACAGCAGAAGGGCUCACGUCGCGGCCCCUGUCAGAUUCUGGUGAAUCUGCGAAUUCAGCAGUAUAUCUC [C23G U25C A35G U69A U72A] | 0.05
2 | UAACAGGGGGCCACAGCAGAAGGGUACACGUCGCGGCCCCUGACAGAUUCUAGAGAAUCUGCGAAUUCUGCUGUAUAUCUC [C23G U26A A35G U43A G52A U54A] | 0.07
3 | UAACAGGGGGCCACAGCAGAAGGGUUCACGUCGCAGCCCCUGACUUAUUCUGGUGAAUCUGCGAAUUCUGCUGUGUAUCUC [C23G U43A A45U G46U A75G] | 0.29
4 | UAACAGGGGGCCACAGCAGAAGGGUACACGCCGCAGCCCCUGUCAAAUUCUGGUGAAUCUGCGAAUUCCGCUGUAUAUCUC [C23G U26A U31C G46A U69C] | 0.05
5 | UAACAGGGGGCCACAGCAGAAGGGUUCACGACGCAGCCCCUGUCAGAUUCUGGUGGAUCUGCGAAUUCUGCUGUAUAUCUC [C23G U31A A56G] | 0.15
6 | UAACAGGGGGCCACAGCAGAAGGGUUCACGACGCAGCCCCUGUCAGAUUCUGGUGAAUCUGCGAAUUCUGCUGUAUAUCCC [C23G U31A U80C] | 0.1
7 | UAACAGGGGGCCACAGCAGAAGAGUUCACGUCGCAGCCCCUGUCAGAUUCUGGUGAAUCUGCGAAUCCUGCUGUAUAUCCC [C23A U67C U80C] | 0.18
8 | UAACAGGGGGCCACAGCAGAAGGGUUCACGUCGCUGCCCCUGUCAGAUUCAAGUGAAUCUGCGAAUUCUGCUGUAUAUCUC [C23G A35U U51A G52A] | 0.07
9 | UAACAGGGGGCCACAGCAGAAGGGUCCACGUCGCAGCCCCUGCCAGAUUCUGGUGAAUCUGCGAAUUCUGCGGUAUAUCUC [C23G U26C U43C U72G] | 0.19
10 | UAACAGGGGGCCACAGCAGAAGAGUCCACGUCGCAGCCACUGUCAGAUUCUGGUGAAUCUGCGAAUUCUGCUGUAUAUCUC [C23A U26C C39A] | 0.32
11 | UAACAGGGGGCCACAGCAGAAGUGUUCGCGUCGCAGCCCCUGUCUGAUUCUGGUGAAUCUGCGAAUUCUGCUGUAUAUCUC [C23U A28G A45U] | 0.09
12 | UAACAGGGGGCCACAGCAGAAGGGUACACGUCGCAGCCCCUGUCAGAUUCUGGUGUAUCUGCGAAUUCUGCUGUAUAUCCC [C23G U26A A56U U80C] | 0.26
13 | UAACAGGGGGCCACAGCAGAAGGGUUCACAACGCAGCCCCUGUCAGAUUCUGGUGAAUCUGCGAAUUCUGCUGUAUAUCCC [C23G G30A U31A U80C] | 0.14
14 | UAACAGGGGGCCACAGCAGAAGAGUUCACGUCGCAGCCCCAGUCAGAUUCUGGUGGAUCUGCGAAUUCUGCUGUAUAUCUC [C23A U41A A56G] | 0.11
15 | UAACAGGGGGCCACAGCAGAAGGGUACGCGUCGCAGCCCCUGUCAGGUUCCGGUGAAUCUGCGAAUUCUGCUGUAUAUCUC [C23G U26A A28G A47G U51C] | 0.05
16 | UAACAGGGGGCCACAGCAGAAGUGUUCGCGUCGCAGCCCCUGUCAGAUUCUGGUGAAUCUGCGAAUACUGCUGUAUAUCUC [C23U A28G U67A] | 0.16
17 | UAACAGGGGGCCACAGCAGAAGGGUUCACGUAGCAGCCCAUGUCAGAUACUGGUGAAUCUGCGAAUUCUGCUGUAUAUCUC [C23G C32A C40A U49A] | 0.18

Row | Variant | self-cleavage
18 | UAACAGGGGGCCACAGCAGAAGGGUUCACGUCGCAGCCCCUGUCAGAUUCUGGUGAAUAUGCGGAUUGUGCUGUAUCUCUC [C23G C59A A64G C68G A77C] | 0.09
19 | UAACAGGGGGCCACAGCAGAAGAGUUCACGUCGCAGCCCCUGUCAGAUUCUGGUGAAUCUGCGAAUACUGCUGUAUUUCUC [C23A U67A A77U] | 0.09
20 | UAACAGGGGGCCACAGCAGAAGGGUCCACGUCGCAGCCCCUGUCAGAUUCUGGUGAGUCUGCGAAUUCUGCUGUAUAUCUC [C23G U26C A57G] | 0.23
21 | UAACAGGGGGCCACAGCAGAAGGGUUCACGUCGCAGUCCCUGUCAGAUUCUGGUGGAUCGGCAAUUUCUGCUGCAUAUCUC [C23G C37U A56G U60G G63A A65U U74C] | 0.05
22 | UAACAGGGGGCCACAGCAGAAGGGUUCACGUCGCGGCCCCUGUCAGAUUCUGGUGAAUCUGCGUAUUCUGCUGUAUAUCUC [C23G A35G A64U] | 0.2
23 | UAACAGGGGGCCACAGCAGAAGGGUCGACGUCGCAGCCCCUGUCAGAUUCUGGUGAAUCCGCGAAUUCUGCUGUAUAUGUC [C23G U26C C27G U60C C79G] | 0.07
24 | UAACAGGGGGCCACAGCAGAAGGGUUCACGUCGCAGCCCCUGUCAGAUUCUGGUGAAUCAGCGAAUUCUGCCGUAUACCAC [C23G U60A U72C U78C U80A] | 0.05
25 | UAACAGGGGGCCACAGCAGAAGUGUUCGCGUCGCAGCCCCUGUCAGAUUCUGGUGAAUCUGCGAAUUCAGCUGUAUAUCUC [C23U A28G U69A] | 0.26
26 | UAACAGGGGGCCACAGCAGAAGGGUUCGCGCCGCAGCCCCUGUCAGAUUCGGGUGAAUCUGCGAAUUCUGCUGAAUAUCUC [C23G A28G U31C U51G U74A] | 0.99
27 | UAACAGGGGGCCACAGCAGAAGGGCUCAGGUCGCAGCCCAUGUCAGAUUCUGGUGAAUCUGCGAAUUCUGCUGUAUAUCUC [C23G U25C C29G C40A] | 0.07
28 | UAACAGGGGGCCACAGCAGAAGGGUUCACGUCGCAGCCCCUGUCGGAUUCUGGUGAAUCUGCAAAUUCUGCCGUAUAUCUC [C23G A45G G63A U72C] | 0.54
29 | UAACAGGGGGCCACAGCAGAAGAGUUCACGUCGCAGCCCCUGACAGAUUCUGGUGAAUCUCCGAAUCCUGCUGUAUAUCCC [C23A U43A G61C U67C U80C] | 0.14
30 | UAACAGGGGGCCACAGCAGAAGGGUUCACGCCGCAGCCCGUGUCAGAUUCUGGUGAAUCUGCGAAUUCCGCUGUAUAUCUC [C23G U31C C40G U69C] | 0.05
31 | UAACAGGGGGCCACAGCAGAAGAGUUCACGUCGCAGCCCCUGUCAGAUUCUGGUGAAUCAGCGAAUUCUGCUGUAUAACUC [C23A U60A U78A] | 0.08
32 | UAACAGGGGGCCACAGCAGAAGAGUUCACGCCGCACCCCAUGUCAGAUUCUGGUGGAUCCGCGAAUUCUGCUGUAUAUCUC [C23A U31C G36C C40A A56G U60C] | 0.06
33 | UAACAGGGGGCCACAGCAGAAGAGUUCACGUCGCAGCCCCUGUCAGAUUCUGGUGAAUCUGCGAAUCCUGCUGCAUAUCUC [C23A U67C U74C] | 0.1
34 | UAACAGGGGGCCACAGCAGAAGAGUUCACGCCGCAGCCCCUGUCAGAUUCUGGUGAAUCUGCGAAUUCCGCUGUGUAUCUC [C23A U31C U69C A75G] | 0.09
